{"source": "PubChem BioAssay AID2147", "about": "(National Center for Advancing Translational Sciences (NCATS), 2009)", "note": "Screen size: about 230,000 compounds; about 3,600 (1.6%) were called active. Inconclusive results, whose numbers are uncertain, are shown with a selection of clear calls. Calls come from the whole dose curve; as a rule, active = well fitted inhibition curve with a large enough effect (not every such curve was filed as active); inconclusive = small, poorly fitted or top-dose-only effect, or another doubt; inactive = no such curve, though single readings can be large or run the other way. A potency beside an inconclusive call is a rough fit, not a confirmed value. Note: nearly all actives have a fitted effect of over 50% in size. Potency is the fitted concentration of half-maximal effect; tags give direction and shape of the fitted curve."}
{"target": "Lysine-specific demethylase 4E (Homo sapiens) (UniProt B2RXH2)", "sequence (B2RXH2 whole entry, looked up, the tested form may be a part)": "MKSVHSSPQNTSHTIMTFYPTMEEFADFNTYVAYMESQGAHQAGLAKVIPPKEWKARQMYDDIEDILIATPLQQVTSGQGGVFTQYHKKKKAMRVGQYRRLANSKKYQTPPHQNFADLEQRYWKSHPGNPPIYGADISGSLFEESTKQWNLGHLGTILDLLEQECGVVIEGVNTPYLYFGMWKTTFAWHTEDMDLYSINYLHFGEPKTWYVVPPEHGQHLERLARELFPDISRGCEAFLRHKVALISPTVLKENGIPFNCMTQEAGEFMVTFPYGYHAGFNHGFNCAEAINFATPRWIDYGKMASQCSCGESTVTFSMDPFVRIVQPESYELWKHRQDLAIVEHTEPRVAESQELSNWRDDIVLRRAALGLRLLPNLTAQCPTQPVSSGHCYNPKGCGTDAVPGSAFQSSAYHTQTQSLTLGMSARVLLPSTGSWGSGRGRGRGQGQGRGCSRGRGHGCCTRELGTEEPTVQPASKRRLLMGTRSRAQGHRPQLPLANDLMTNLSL", "assay": "qHTS Assay for Inhibitors of Human Jumonji Domain Containing 2E (JMJD2E)", "conditions": "JMJD2E catalytic domain, FDH-coupled NADH fluorescence (FDH is formaldehyde dehydrogenase); series mostly up to 57.1 µM"}
{"smiles": "CCOC(=O)NN1C(=O)c2ccccc2NC1(C)C", "Potency": "inconclusive: 25.1 µM [inhibitor, partial curve]"}
{"smiles": "CCC1=C2CC[C@H]3C(=O)N(CC)C(=O)[C@H]3[C@H]2[C@@]2(C)C(=O)N(CC(=O)OC)C(=O)N2C1=O", "Potency": "inactive"}
{"smiles": "CCOC(=O)CSc1nc(C2CC2)cc(-c2ccc(F)cc2)c1C#N", "Potency": "inconclusive: 39.8 µM [inhibitor, single point]"}
{"smiles": "Cn1c2c(c(=O)n(C)c1=O)NC1(N2)C(=O)Nc2ccccc21", "note": "(centres undefined)", "Potency": "inconclusive: 25.1 µM [inhibitor, partial curve]"}
{"smiles": "COc1ccc2cc(CN(CCCN3CCOCC3)Cc3nnnn3C3CCCCC3)c(=O)[nH]c2c1", "Potency": "inconclusive: 25.1 µM [inhibitor, single point]"}
{"smiles": "O=S(=O)(Nc1ccc2c(c1)nc1n2CCN(Cc2ccccc2)C1)c1ccc(F)cc1", "Potency": "inconclusive: 35.5 µM [inhibitor, single point]"}
{"smiles": "Clc1cncc(Cl)c1NNc1c2ccccc2nc2ccccc12", "Potency": "inconclusive: 25.1 µM [inhibitor, partial curve]"}
{"smiles": "COc1cccc(CN2CCN(C(=O)c3cccc4ccccc34)CC2)c1OC", "Potency": "inconclusive: 28.2 µM [inhibitor, single point]"}
{"smiles": "O=C(c1ccccc1F)N1CCN(C2CCC(c3ccccc3)CC2)CC1", "note": "(centres undefined)", "Potency": "inconclusive: 31.6 µM [inhibitor, single point]"}
{"smiles": "Cc1ccc(N2C(N)=C(C#N)C(c3cccs3)C3=C2CC(C)(C)CC3=O)cc1", "note": "(centres undefined)", "Potency": "inconclusive: 39.8 µM [inhibitor, single point]"}
{"smiles": "O=C(CSc1nc(-c2ccco2)cc(C(F)(F)F)n1)N1CCCc2ccccc21", "Potency": "inconclusive: 39.8 µM [inhibitor, single point]"}
{"smiles": "CCN1CCCC(OC(=O)c2cc(-c3ccc(C)cc3)nc3ccccc23)C1", "note": "(centres undefined)", "Potency": "inconclusive: 28.2 µM [inhibitor, partial curve]"}
{"smiles": "C#CCNC(=O)C1=C[C@H](c2cn(C(C)=O)c3ccccc23)C[C@H](OCc2ccc(CO)cc2)O1", "Potency": "inconclusive: 39.8 µM [inhibitor, single point]"}
{"smiles": "CCOC(=O)C(=O)Nc1sc(C(=O)N2CCOCC2)c(C)c1C#N", "Potency": "inconclusive: 39.8 µM [inhibitor, single point]"}
{"smiles": "Cc1cccc2sc(NS(C)(=O)=O)nc12", "Potency": "inactive"}
{"smiles": "Cc1cc2c(NC(=O)Nc3ccccc3)cccc2nn1", "Potency": "inconclusive: 4.47 µM [inhibitor, full curve]"}
{"smiles": "CNC(=O)Cn1c(C)cc(=O)c2cccc(OC)c21", "Potency": "inconclusive: 25.1 µM [inhibitor, partial curve]"}
{"smiles": "Cc1ccc(N2CCN(C(=O)N3CCOCC3)CC2)cc1C", "Potency": "inactive"}
{"smiles": "CCOC(=O)NC(=O)COC(=O)c1ccc(Sc2ncn[nH]2)c([N+](=O)[O-])c1", "Potency": "inactive"}
{"smiles": "COc1ccccc1/C=C/C(=O)Oc1cccc2cccnc12", "Potency": "inconclusive: 31.6 µM [inhibitor, partial curve]"}
{"smiles": "CNc1ncncc1-c1ccc(C(=O)N(C)C)cc1", "Potency": "inconclusive: 28.2 µM [inhibitor, partial curve]"}
{"smiles": "CCn1c(C)nc2cc(C(=O)N/N=C/c3cccc(O)c3O)ccc21", "Potency": "active: 3.55 µM"}
{"smiles": "COc1cccc(C2=NOC(C(=O)Nc3cc(C)on3)C2)c1", "note": "(centres undefined)", "Potency": "inconclusive: 35.5 µM [inhibitor, single point]"}
{"smiles": "O=C(CSc1nc(-c2ccccc2)nc2ccccc12)Nc1cccc(C(=O)O)c1", "Potency": "inactive"}
{"smiles": "O=C(NCCO)c1cccc2c1C(=O)c1ccccc1-2", "Potency": "inactive"}
{"smiles": "CCCCNC1C(CC)C(CCC)C(C#N)(C#N)C1(C#N)C#N", "note": "(centres undefined)", "Potency": "inactive"}
{"smiles": "CCOc1ccc(C(C)C)cc1S(=O)(=O)N1CCOCC1", "Potency": "inactive"}
{"smiles": "COc1ccc(CN2CN(S(=O)(=O)c3ccccc3)c3nc4ccccc4nc32)cc1", "Potency": "inconclusive: 28.2 µM [inhibitor, single point]"}
{"smiles": "COc1ccc(OC)c2sc(NC(=O)C(C)C)nc12", "Potency": "inconclusive: 3.55 µM [inhibitor, single point]"}
{"smiles": "CCCCC/C=C\\C/C=C\\C/C=C\\CCCCCCC(=O)NCCCC(=O)O", "Potency": "inconclusive: 5.62 µM [inhibitor, single point]"}
{"smiles": "CCOC(=O)c1ccc(NC(=O)c2nc[nH]c2C(=O)N2CCc3ccccc3C2)cc1", "Potency": "inconclusive: 39.8 µM [inhibitor, single point]"}
{"smiles": "CN(C)c1ccc(C2CC(c3cccc(NS(C)(=O)=O)c3)=NN2C(=O)c2ccccc2)cc1", "note": "(centres undefined)", "Potency": "inconclusive: 25.1 µM [inhibitor, single point]"}
{"smiles": "Clc1ccc2oc(-c3ccccc3)cc(=NCCCN3CCOCC3)c2c1", "Potency": "inconclusive: 39.8 µM [inhibitor, single point]"}
{"smiles": "Cc1cc(C)cc(NC(=O)/C(C#N)=C/c2cn(CC(=O)NCc3ccco3)c3ccccc23)c1", "Potency": "inconclusive: 35.5 µM [inhibitor, single point]"}
{"smiles": "Cc1cc(NC(=O)C(=O)NCCN2CCN(C(=O)c3cccs3)CC2)ccc1Br", "Potency": "inactive"}
{"smiles": "COc1ccc(OC)c(/C=C2\\SC(=S)N(N3CCOCC3)C2=O)c1", "Potency": "inactive"}
{"smiles": "CC1=NN(c2ccccc2)C(=O)/C1=C/C=C/C=C/N(C)C", "Potency": "inconclusive: 39.8 µM [inhibitor, single point]"}
{"smiles": "COc1ccccc1N1CCN(C(CNC(=O)c2ccc3c(c2)OCO3)c2cccnc2)CC1", "note": "(centres undefined)", "Potency": "inconclusive: 0.0355 µM [inhibitor, full curve, poor fit]"}
{"smiles": "Cc1ccc(C)c(OCCCC(=O)Nc2nccs2)c1", "Potency": "inactive"}
{"smiles": "Cc1cc(OCc2ccc(F)cc2)nc(-c2ccccc2O)n1", "Potency": "inconclusive: 39.8 µM [inhibitor, single point]"}
{"smiles": "COc1ccc(/C=C2\\SC(=O)N(CC(=O)NNC(=O)c3ccccc3O)C2=O)cc1OC", "Potency": "inconclusive: 11.2 µM [inhibitor, partial curve]"}
{"smiles": "CCOC(=O)C1=C(Cc2ccc(OC)cc2)C(=O)c2ccccc2C1=O", "Potency": "inconclusive: 2.82 µM [inhibitor, full curve, poor fit]"}
{"smiles": "COc1ccc(NCc2nnc(SCC(=O)c3ccc(OC)cc3)o2)cc1", "Potency": "inactive"}
{"smiles": "COc1ccc(CNC(=O)c2cnc3scc(C)n3c2=O)cc1", "Potency": "inconclusive: 28.2 µM [inhibitor, partial curve]"}
